Out of some 150,000 compounds screened, about 540 (0.36%) showed an effect of 50% or more. The list shows a part of the results.
Test system: Plasmodium falciparum
Assay: Primary screen in NF54 nanoGlo assay, in single point, at 2uM, 72h; a lower Z score goes with more inhibition
Format: functional, Erythrocyte
Conditions: timepoint 72 hour

Row | SMILES | % Inhibition [%] | Z score
1 | COc1ccc(-c2nc3c(cnn3Cc3ccncc3)[nH]2)cc1OC | -6 | 0.89
2 | Cc1cc(N2CCOC[C@@H](O)C2)nc(Nc2cccc(O)c2)n1 | -4 | 0.39
3 | O=C(CN1CCOCC1)N1CC[C@@]2(CCCN(C3CCCCC3)C2=O)C1 | 4 | -0.76
4 | CCOC(=O)c1nnsc1Nc1ccc(F)cc1 | 11 | -1.33
5 | COc1ccc(N2CCN(C(=O)c3[nH]nc4c3CCC4)CC2)cc1 | 9 | -1.01
6 | COc1ccc(C(C)CN2CCCCC2CS(N)(=O)=O)cc1 (centres undefined) | 0 | -0.03
7 | CC(C)CNC(=O)c1nc(-c2ccnc(N3CCCCCC3)c2)no1 | -3 | 0.43
8 | Cc1cc(C(=O)NC[C@H]2CCCN(C(=O)c3cccc(O)n3)C2)c(C)o1 | -11 | 1.87
9 | Fc1cccc(-c2nc3n(n2)[C@@H](C(Cl)(Cl)Cl)Nc2ccccc2-3)c1 | 5 | -0.67
10 | CN(C(=O)Cc1ccc2c(c1)CCCO2)c1ncccc1F | 2 | -0.3
11 | CCc1csc(CNS(=O)(=O)N2CCOCC2)n1 | 1 | -0.16
12 | CN(Cc1ccc(F)cc1)c1ccc(-c2nc(C3CC3)no2)cn1 | -5 | 0.94
13 | Cn1cc(-c2nnc(N3CCOCC3)[nH]2)cn1 | -10 | 1.62
14 | CCC(NC(=O)NC(C)Cc1ccsc1)c1nc(C)cs1 (centres undefined) | -14 | 2.19
15 | CN(Cc1ccn(C)n1)C(=O)N[C@@H]1CCCOC1 | 10 | -0.99
16 | COc1ccc(N(Cc2ccc(Cl)c(Cl)c2)c2snnc2C)cc1 | -23 | 3.01
17 | C[C@H](NC(=O)c1cc2ccccc2cc1O)c1cccs1 | -8 | 1.28
18 | COC(=O)[C@H](C)NC(=O)COc1ccccc1 | -8 | 1.3
19 | CCOC(=O)c1c(-c2ccc(Cl)cc2)nn2c1NCN(Cc1ccccc1Cl)C2 | -9 | 1.43
20 | CCn1c(=O)n(Cc2noc(C3CC3)n2)c2ccccc21 | 10 | -1.12
21 | O=C(NC[C@@H]1C=CCC1)N1CCOC2(CCS(=O)(=O)CC2)C1 | -6 | 0.69

Row | SMILES | % Inhibition [%] | Z score
22 | COCCN1C[C@]2(CCCN(C(=O)c3ccc(O)cc3)C2)CCC1=O | -15 | 2.4
23 | Cn1c(CN2CCCC2)nnc1C1CCN(C(=O)C2CCCCCC2)CC1 | -20 | 2.55
24 | Cc1ccc(CNCc2cccnc2)s1 | -12 | 1.76
25 | Cn1ncc(Oc2ccc(F)cc2F)c(Nc2cccc(C(=O)NCc3cccnc3)c2)c1=O | -5 | 0.54
26 | COCCC(=O)Nc1ccc(Br)c(C)n1 | -2 | 0.31
27 | Cc1ccccc1NC(=O)N1CCN(CCn2cccn2)CC1 | -9 | 1.71
28 | COC[C@@H]1CN(C(=O)c2ccc(C)c(F)c2)C[C@H]1c1ccccn1 | -21 | 3.59
29 | CC1CCN(C(=O)C(=O)Nc2ccc(C#N)cc2)C(c2ccco2)C1 (centres undefined) | 0 | 0.06
30 | CN1CCO[C@@H](C(=O)NCCN2CCN(c3ccccc3F)CC2)[C@@H]1c1ccccc1 | -6 | 0.77
31 | CN1C[C@H]2CN(C(=O)Cc3cccc(Cl)c3)C[C@@]2(C(=O)N2CCCC2)C1 | -6 | 0.82
32 | Cc1oc(C)c(C(=O)N[C@@H](C)c2ccccn2)c1C | -9 | 1
33 | O=C1NC2(CCC2)C(=O)N1CC1CCCCC1 | 4 | -0.45
34 | COc1ccc(OC)c(NC(=O)c2sc(Nc3ccc(F)cc3)nc2C)c1 | -11 | 1.43
35 | CNC(=O)N1CCc2cn(C)c3cccc(c23)C1 | -10 | 1.02
36 | CC(C)N1C(=O)CN(CN(C)Cc2ccc(Cl)cc2)C1=O | -11 | 2.03
37 | O=C(c1ccc(Cl)c(F)c1)N1CC[C@H]2[C@H](CCC(=O)N2CCCCO)C1 | 1 | -0.11
38 | Cc1cc(C(=O)N2CCN(CCN3C(=O)NC(C)(C)C3=O)CC2)on1 | -8 | 1
39 | O=C([C@H]1CCCC12CC2)N1CCC(c2nc(C(F)(F)F)cs2)CC1 | 4 | -0.43
40 | CCOc1ccccc1CN1CCN(Cc2c[nH]c3nccnc23)[C@@H](C)C1 | -4 | 0.77
41 | COc1ccccc1[C@@H]1C[C@H]1C(=O)N(C)Cc1cc(F)cc(F)c1 | -11 | 0.96
42 | Cc1cnc(CNC(=O)c2ccc(Cl)cc2O)o1 | 8 | -1.18

Source: ChEMBL document CHEMBL4888484, “Replenishing the malaria drug discovery pipeline: Screening and hit evaluation of the MMV Hit Generation Library 1 (HGL1) against asexual blood stage Plasmodium falciparum ,using a nano luciferase reporter read-out” (2022)
